In US20230365662A1:
Numbering of substitutions follows the chain as printed. In names and notes the source's numbering stands. The source holds more than one record for some entries. The list is limited to them. The source may hold further records. Results that share an entry read as repeated measurements on other runs, samples or individuals; a mean can stand among them. Counts like (3×) count equal records among those shown.

Experiments:
[1] = target: HRgpA-6H (Porphyromonas gingivalis) (UniProt P28784); test: ELISA, FASEBA Fab on coated HRgpA-6H
[2] = target: HRgpA-6H (Porphyromonas gingivalis) (UniProt P28784); test: ELISA, Fab FASEBA supernatant on coated HRgpA-6H
[3] = target: HRgpA-6H (Porphyromonas gingivalis) (UniProt P28784); test: ELISA, Fab FASEBA supernatant on coated HRgpA-6H (0.0625 ug/ml)

B1: KB001 mouse Fab VL S57K (Fab, V domains shown)
VH: EVQLKQSGPGLVAPSQSLSITCTVSGFSLSIYSVHWVRQPPGKGLEWLGMIWGGGSSDYNSALKSRLSISKDNSKSQVFLKMNSLQTDDTAMYYCARNGNFYAMDYWGQGTSVTVSS
VL: QIVLTQSPAIMSASLGERVTMTCTASSSVSSSFLHWYQQKPGSSPQLWIYSTSNLAKGVPARFSGSGSGTSYSLTISSMEAEDAATYYCHQYHHSPYIYTFGGGTKLEIK
In the case of B1, the OD450nm [1] is reported as 0.841, 0.84, 0.864, 0.846, 0.879 [lines of one column] and the Ratio OD(Variant)/OD(WT) [1] is reported as 1.03 (2×), 1.06, 1.04, 1.08 [lines of one column].

B2: parental mouse (KB001) Fab FASEBA, VL variant T100F (Fab, V domains shown)
VH: B1 VH
VL: B1 VL with K57S, T100F
For B2, the OD450nm [2] was 0.494 OD450nm, 0.492 OD450nm, 0.48 OD450nm, 0.517 OD450nm [lines of one column] and the Ratio OD(Variant)/OD(WT) [2] was 0.944, 0.94, 0.917, 0.988 ratio to WT [lines of one column].

B3: KB001 parental mouse Fab VH variant N100D (Fab, V domains shown)
VH: B1 VH with N100D
VL: B1 VL with K57S
For B3, the OD450nm [3] was 0.82, 0.784, 0.841, 0.842 [lines of one column] and the Ratio OD(Variant)/OD(WT) [3] was 0.968, 0.926, 0.993, 0.994 [lines of one column].

B4: parental mouse (KB001) Fab FASEBA, VL variant S95K (Fab, V domains shown)
VH: B1 VH
VL: B1 VL with K57S, S95K
With B4 the OD450nm [2] was 0.841 OD450nm, 0.824 OD450nm, 0.813 OD450nm, 0.79 OD450nm [lines of one column] and the Ratio OD(Variant)/OD(WT) [2] was 0.916, 0.897, 0.885, 0.86 ratio to WT [lines of one column].

B5: KB001 mouse Fab VL S28F (Fab, V domains shown)
VH: B1 VH
VL: B1 VL with S28F, K57S
With B5 the OD450nm [1] was 0.674, 0.721, 0.74, 0.678 [lines of one column] and the Ratio OD(Variant)/OD(WT) [1] was 0.898, 0.961, 0.986, 0.903 [lines of one column].

B6: parental mouse (KB001) Fab FASEBA, VL variant A56H (Fab, V domains shown)
VH: B1 VH
VL: B1 VL with A56H, K57S
In the case of B6, the OD450nm [2] is reported as 0.704 OD450nm, 0.699 OD450nm, 0.759 OD450nm, 0.739 OD450nm [lines of one column] and the Ratio OD(Variant)/OD(WT) [2] is reported as 0.863, 0.857, 0.931, 0.906 ratio to WT [lines of one column].

B7: KB001 parental mouse Fab VH variant F101Y (Fab, V domains shown)
VH: B1 VH with F101Y
VL: B1 VL with K57S
B7 was tested, and the OD450nm [3] was 0.69, 0.718, 0.738, 0.713, 0.732 [lines of one column] and the Ratio OD(Variant)/OD(WT) [3] was 0.815, 0.848, 0.871, 0.842, 0.864 [lines of one column].

B8: KB001 mouse Fab VL S31L (Fab, V domains shown)
VH: B1 VH
VL: B1 VL with S31L, K57S
B8 was tested, and the OD450nm [1] was 0.742, 0.739, 0.745, 0.691 [lines of one column] and the Ratio OD(Variant)/OD(WT) [1] was 0.878, 0.875, 0.882, 0.818 [lines of one column].

B9: KB001 parental mouse Fab VH variant Y106E (Fab, V domains shown)
VH: B1 VH with Y106E
VL: B1 VL with K57S
In the case of B9, the OD450nm [3] is reported as 0.687, 0.705, 0.721, 0.686 [lines of one column] and the Ratio OD(Variant)/OD(WT) [3] is reported as 0.893, 0.917, 0.938, 0.892 [lines of one column].

B10: parental mouse (KB001) Fab FASEBA, VL variant A56Y (Fab, V domains shown)
VH: B1 VH
VL: B1 VL with A56Y, K57S
B10 was tested, and the OD450nm [2] was 0.673 OD450nm, 0.712 OD450nm, 0.726 OD450nm, 0.696 OD450nm, 0.698 OD450nm [lines of one column] and the Ratio OD(Variant)/OD(WT) [2] was 0.825, 0.873, 0.89, 0.853, 0.856 ratio to WT [lines of one column].
